In patent US12043670B2, “Anti-BCMA antibody-drug conjugates and methods of use” (Eisai R&D Management Co., Ltd., priority 2020, dated 2024):

assay: ThermoFluor thermostability (Tm); assay type: physicochemical; conditions: Heavy chain screening Round 1; Fab, paired with light chain AB200_VK6

Row | Molecule | Tm
1 | AB200-R1a-Fab_VH23 (antibody) heavy: QVQLVQSGAEVKKPGSSVKVSCKASGGTFSNYYMHWVRQAPGQGLEWMGATYRGHSDTFYAQKFKGRVTITADKSTSTAYMELSSLRSEDTAVYYCARGAIYHGYDVLDNWGQGTLVTVSSASTKGPSVFPLAPSSKSTSGGTAALGCLVKDYFPEPVTVSWNSGALTSGVHTFPAVLQSSGLYSLSSVVTVPSSSLGTQTYICNVNHKPSNTKVDKKVEPKSC light: DIQMTQSPSSLSASVGDRVTITCSATQDISNYLNWYQQKPGKAPKLLIYFTSNLQSGVPSRFSGSGSGTDFTLTISSLQPEDFATYYCQQYRKLPWTFGQGTKLEIKRTVAAPSVFIFPPSDEQLKSGTASVVCLLNNFYPREAKVQWKVDNALQSGNSQESVTEQDSKDSTYSLSSTLTLSKADYEKHKVYACEVTHQGLSSPVTKSFNRGEC | 79.077 °C
2 | AB200-R1a-Fab_VH24 (antibody) heavy: QVQLVQSGAEVKKPGSSVKVSCKASGGTFTNYWMHWVRQAPGQGLEWMGATYRGHSNTYYNQKFKGRVTITADKSTSTAYMELSSLRSEDTAVYYCARGAIYHGYDVIDNWGQGTLVTVSSASTKGPSVFPLAPSSKSTSGGTAALGCLVKDYFPEPVTVSWNSGALTSGVHTFPAVLQSSGLYSLSSVVTVPSSSLGTQTYICNVNHKPSNTKVDKKVEPKSC light: DIQMTQSPSSLSASVGDRVTITCSATQDISNYLNWYQQKPGKAPKLLIYFTSNLQSGVPSRFSGSGSGTDFTLTISSLQPEDFATYYCQQYRKLPWTFGQGTKLEIKRTVAAPSVFIFPPSDEQLKSGTASVVCLLNNFYPREAKVQWKVDNALQSGNSQESVTEQDSKDSTYSLSSTLTLSKADYEKHKVYACEVTHQGLSSPVTKSFNRGEC | 81.423 °C
3 | AB200-R1a-Fab_VH26: round 1 heavy chain variant of AB200_D99H_Fab paired with the AB200_Vk6_Fab (antibody) heavy: QVQLVQSGAEVKKPGSSVKVSCKASGGSFSNYWMHWVRQAPGQGLEWMGATYRIHSDTFYNQKFKGRVTITADKSTSTAYMELSSLRSEDTAVYYCARGAIYHGYDVLDNWGQGTLVTVSSASTKGPSVFPLAPSSKSTSGGTAALGCLVKDYFPEPVTVSWNSGALTSGVHTFPAVLQSSGLYSLSSVVTVPSSSLGTQTYICNVNHKPSNTKVDKKVEPKSC light: DIQMTQSPSSLSASVGDRVTITCSATQDISNYLNWYQQKPGKAPKLLIYFTSNLQSGVPSRFSGSGSGTDFTLTISSLQPEDFATYYCQQYRKLPWTFGQGTKLEIKRTVAAPSVFIFPPSDEQLKSGTASVVCLLNNFYPREAKVQWKVDNALQSGNSQESVTEQDSKDSTYSLSSTLTLSKADYEKHKVYACEVTHQGLSSPVTKSFNRGEC | 79.749 °C
4 | AB200-R1a-Fab_VH27 (antibody) heavy: QVQLVQSGAEVKKPGSSVKVSCKATGGTFSNYWMHWVRQAPGQGLEWMGAIYRGHSDTYYNQKFRGRVTITADKSTSTAYMELSSLRSEDTAVYYCARGAIYHGYDVLDNWGQGTLVTVSSASTKGPSVFPLAPSSKSTSGGTAALGCLVKDYFPEPVTVSWNSGALTSGVHTFPAVLQSSGLYSLSSVVTVPSSSLGTQTYICNVNHKPSNTKVDKKVEPKSC light: DIQMTQSPSSLSASVGDRVTITCSATQDISNYLNWYQQKPGKAPKLLIYFTSNLQSGVPSRFSGSGSGTDFTLTISSLQPEDFATYYCQQYRKLPWTFGQGTKLEIKRTVAAPSVFIFPPSDEQLKSGTASVVCLLNNFYPREAKVQWKVDNALQSGNSQESVTEQDSKDSTYSLSSTLTLSKADYEKHKVYACEVTHQGLSSPVTKSFNRGEC | 83.141 °C
5 | AB200-R1a-Fab_VH30 (antibody) heavy: QVQLVQSGAEVKKPGSSVKVSCKASGGTYSNYWMHWVRQAPGQGLEWMGATYRGHTDTYYNQKFKGRVTITADKSTSTAYMELSSLRSEDTAVYYCARGAIYHGYDVMDNWGQGTLVTVSSASTKGPSVFPLAPSSKSTSGGTAALGCLVKDYFPEPVTVSWNSGALTSGVHTFPAVLQSSGLYSLSSVVTVPSSSLGTQTYICNVNHKPSNTKVDKKVEPKSC light: DIQMTQSPSSLSASVGDRVTITCSATQDISNYLNWYQQKPGKAPKLLIYFTSNLQSGVPSRFSGSGSGTDFTLTISSLQPEDFATYYCQQYRKLPWTFGQGTKLEIKRTVAAPSVFIFPPSDEQLKSGTASVVCLLNNFYPREAKVQWKVDNALQSGNSQESVTEQDSKDSTYSLSSTLTLSKADYEKHKVYACEVTHQGLSSPVTKSFNRGEC | 79.922 °C
6 | AB200-R1a-Fab_VH31 (antibody) heavy: QVQLVQSGAEVKKPGSSVKVSCKASGGTFSNYWMHWVRQAPGQGLEWMGGTYRGHSDTYFNQKFKGRVTITADKSTSTAYMELSSLRSEDTAVYYCARGAIYHGFDVLDNWGQGTLVTVSSASTKGPSVFPLAPSSKSTSGGTAALGCLVKDYFPEPVTVSWNSGALTSGVHTFPAVLQSSGLYSLSSVVTVPSSSLGTQTYICNVNHKPSNTKVDKKVEPKSC light: DIQMTQSPSSLSASVGDRVTITCSATQDISNYLNWYQQKPGKAPKLLIYFTSNLQSGVPSRFSGSGSGTDFTLTISSLQPEDFATYYCQQYRKLPWTFGQGTKLEIKRTVAAPSVFIFPPSDEQLKSGTASVVCLLNNFYPREAKVQWKVDNALQSGNSQESVTEQDSKDSTYSLSSTLTLSKADYEKHKVYACEVTHQGLSSPVTKSFNRGEC | 79.560 °C
7 | AB200-R1a-Fab_VH32: round 1 heavy chain variant of AB200_D99H_Fab paired with the AB200_Vk6_Fab (antibody) heavy: QVQLVQSGAEVKKPGSSVKVSCKASGGTFSNYWMHWVRQAPGQGLEWMGATYRSHSDTYYNQKFKSRVTITADKSTSTAYMELSSLRSEDTAVYYCARGAIYHGYDVIDNWGQGTLVTVSSASTKGPSVFPLAPSSKSTSGGTAALGCLVKDYFPEPVTVSWNSGALTSGVHTFPAVLQSSGLYSLSSVVTVPSSSLGTQTYICNVNHKPSNTKVDKKVEPKSC light: DIQMTQSPSSLSASVGDRVTITCSATQDISNYLNWYQQKPGKAPKLLIYFTSNLQSGVPSRFSGSGSGTDFTLTISSLQPEDFATYYCQQYRKLPWTFGQGTKLEIKRTVAAPSVFIFPPSDEQLKSGTASVVCLLNNFYPREAKVQWKVDNALQSGNSQESVTEQDSKDSTYSLSSTLTLSKADYEKHKVYACEVTHQGLSSPVTKSFNRGEC | 78.112 °C
8 | AB200-R1a-Fab_VH33 (antibody) heavy: QVQLVQSGAEVKKPGSSVKVSCKASGGTFTNFWMHWVRQAPGQGLEWMGATYRGQSDTYYNQKFKGRVTITADKSTSTAYMELSSLRSEDTAVYYCARGAIYHGYDVLDNWGQGTLVTVSSASTKGPSVFPLAPSSKSTSGGTAALGCLVKDYFPEPVTVSWNSGALTSGVHTFPAVLQSSGLYSLSSVVTVPSSSLGTQTYICNVNHKPSNTKVDKKVEPKSC light: DIQMTQSPSSLSASVGDRVTITCSATQDISNYLNWYQQKPGKAPKLLIYFTSNLQSGVPSRFSGSGSGTDFTLTISSLQPEDFATYYCQQYRKLPWTFGQGTKLEIKRTVAAPSVFIFPPSDEQLKSGTASVVCLLNNFYPREAKVQWKVDNALQSGNSQESVTEQDSKDSTYSLSSTLTLSKADYEKHKVYACEVTHQGLSSPVTKSFNRGEC | 82.085 °C
9 | AB200-R1a-Fab_VH1 (antibody) heavy: QVQLVQSGAEVKKPGSSVKVSCKASGGTFSNYWMHWVRQAPGQGLEWMGATYRGHSETYYNEKFKGRVTITADKSTSTAYMELSSLRSEDTAVYYCARGAIYHGYDVLDDWGQGTLVTVSSASTKGPSVFPLAPSSKSTSGGTAALGCLVKDYFPEPVTVSWNSGALTSGVHTFPAVLQSSGLYSLSSVVTVPSSSLGTQTYICNVNHKPSNTKVDKKVEPKSC light: DIQMTQSPSSLSASVGDRVTITCSATQDISNYLNWYQQKPGKAPKLLIYFTSNLQSGVPSRFSGSGSGTDFTLTISSLQPEDFATYYCQQYRKLPWTFGQGTKLEIKRTVAAPSVFIFPPSDEQLKSGTASVVCLLNNFYPREAKVQWKVDNALQSGNSQESVTEQDSKDSTYSLSSTLTLSKADYEKHKVYACEVTHQGLSSPVTKSFNRGEC | 82.955 °C
10 | AB200-R1a-Fab_VH34 (antibody) heavy: QVQLVQSGAEVKKPGSSVKVSCKASGGTFSNYYLHWVRQAPGQGLEWMGATYRGHSDTYYNQKFKGRVTITADKSTSTAYMELSSLRSEDTAVYYCARGAIYNGYDVLDNWGQGTLVTVSSASTKGPSVFPLAPSSKSTSGGTAALGCLVKDYFPEPVTVSWNSGALTSGVHTFPAVLQSSGLYSLSSVVTVPSSSLGTQTYICNVNHKPSNTKVDKKVEPKSC light: DIQMTQSPSSLSASVGDRVTITCSATQDISNYLNWYQQKPGKAPKLLIYFTSNLQSGVPSRFSGSGSGTDFTLTISSLQPEDFATYYCQQYRKLPWTFGQGTKLEIKRTVAAPSVFIFPPSDEQLKSGTASVVCLLNNFYPREAKVQWKVDNALQSGNSQESVTEQDSKDSTYSLSSTLTLSKADYEKHKVYACEVTHQGLSSPVTKSFNRGEC | 82.908 °C
11 | AB200-R1a-Fab_VH35 (antibody) heavy: QVQLVQSGAEVKKPGSSVKVSCKASGGTFSNYWIHWVRQAPGQGLEWMGATFKGHSDTYYNQKFKGRVTITADKSTSTAYMELSSLRSEDTAVYYCARGAIYHGYDVLDNWGQGTLVTVSSASTKGPSVFPLAPSSKSTSGGTAALGCLVKDYFPEPVTVSWNSGALTSGVHTFPAVLQSSGLYSLSSVVTVPSSSLGTQTYICNVNHKPSNTKVDKKVEPKSC light: DIQMTQSPSSLSASVGDRVTITCSATQDISNYLNWYQQKPGKAPKLLIYFTSNLQSGVPSRFSGSGSGTDFTLTISSLQPEDFATYYCQQYRKLPWTFGQGTKLEIKRTVAAPSVFIFPPSDEQLKSGTASVVCLLNNFYPREAKVQWKVDNALQSGNSQESVTEQDSKDSTYSLSSTLTLSKADYEKHKVYACEVTHQGLSSPVTKSFNRGEC | 84.851 °C
12 | AB200-R1a-Fab_VH36 (antibody) heavy: QVQLVQSGAEVKKPGSSVKVSCKASGGTFSNYWMHWVRQAPGQGLEWMGATFRGHSDTYYNHKFKGRVTITADKSTSTAYMELSSLRSEDTAVYYCARGAIYHGFDVLDNWGQGTLVTVSSASTKGPSVFPLAPSSKSTSGGTAALGCLVKDYFPEPVTVSWNSGALTSGVHTFPAVLQSSGLYSLSSVVTVPSSSLGTQTYICNVNHKPSNTKVDKKVEPKSC light: DIQMTQSPSSLSASVGDRVTITCSATQDISNYLNWYQQKPGKAPKLLIYFTSNLQSGVPSRFSGSGSGTDFTLTISSLQPEDFATYYCQQYRKLPWTFGQGTKLEIKRTVAAPSVFIFPPSDEQLKSGTASVVCLLNNFYPREAKVQWKVDNALQSGNSQESVTEQDSKDSTYSLSSTLTLSKADYEKHKVYACEVTHQGLSSPVTKSFNRGEC | 82.674 °C
